Experimental data published in PubChem BioAssay AID602293 (National Center for Advancing Translational Sciences (NCATS), 2012).
Screen size: about 1,300 compounds; about 30 (2%) were called active. About 10% were inconclusive and are not listed. Calls come from the whole dose curve; as a rule, active = well fitted inhibition curve with a large enough effect; inconclusive = small, poorly fitted or top-dose-only effect; inactive = flat fitted curve, though single readings scatter. Some of the results follow.

assay: qHTS for antagonists of the Thyroid Stimulation Hormone Receptor: Hit Validation in HTRF Activity in a Luteinizing Hormone Receptor Cell Line; conditions: LHR-expressing cell line, cAMP HTRF, antagonist mode; series mostly up to 58 µM; activity change, negative = inhibition: at the top concentration
Method in brief: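 Counter-screen on LH receptor–transfected HEK 293 cells: 30 min compound exposure at room temperature in medium containing 100 uM RO 20-1724 phosphodiesterase inhibitor. Cellular cAMP read by competitive HTRF after lysis with d2-cAMP and anti-cAMP antibody (330 nm excitation; 615/660 nm emission).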
% is set by controls: 0 for no effect and ±100 for the full control effect.

| SMILES | activity change, negative = inhibition |
| --- | --- |
| COCc1c(C(=O)Nc2cccc(S(=O)(=O)N3CCCCC3)c2)oc2ccccc12 | inactive: -0.436% |
| COc1cc(/C=C/C(=O)c2ccc(NS(=O)(=O)c3ccc(C)cc3)cc2)ccc1OC(F)F | inactive: -2.16% |
| COc1ccccc1NS(=O)(=O)c1cccc(NC(=O)c2nn(C)c(=O)c3ccccc23)c1 | inactive: -1.82% |
| C/C(=N\Nc1cc(C)nc(-c2ccccc2O)n1)c1ccccc1 | inactive: 0.625% |
| O=C(N[C@H]1C/C=C\C(c2cccc(F)c2)N(Cc2ccccc2)C(=O)C1)OCC1c2ccccc2-c2ccccc21 (some centres not stated) | inactive: 0.541% |
| O=C1C(Nc2ccc(O)cc2)=C/C(=N/S(=O)(=O)c2cccs2)c2ccccc21 | inactive: -7.49% |
| CC(Sc1nnc2c(n1)[nH]c1ccccc12)C(=O)N(C)C1CCCCC1 (configuration not stated) | inactive: -6.16% |
| O=C(NCc1cccc(Cl)c1)c1cc(COc2ccc3ncccc3c2)on1 | inactive: -4.84% |
| CC(OC(=O)C1CCN(c2ccc(C(F)(F)F)cn2)CC1)C(=O)Nc1cccc([N+](=O)[O-])c1 (configuration not stated) | inactive: -2.43% |
| O=C(c1ccccc1)c1ccc(Cn2cc(-c3ccccc3)nn2)cc1 | inactive: -3.76% |
| Cn1c(CNC(=O)C(Cc2ccccc2)NC(=O)c2ccccc2)cc(=O)n(C)c1=O (configuration not stated) | inactive: -0.184% |
| CCc1nn(CC(=O)N2CCCCCC2)c(=O)c2cc3ccccc3n12 | inactive: 1.29% |
| O=S(=O)(Nc1cccc(-c2cn3cccnc3n2)c1)c1ccc(-c2ccccc2)cc1 | inactive: -0.336% |
| COCCNC(=S)N1CCCN(c2nc3cc(C)ccc3cc2C#N)CC1 | inactive: 0.829% |
| O=C(NC(Nc1nc2ccc([N+](=O)[O-])cc2s1)(C(F)(F)F)C(F)(F)F)c1ccccc1 | inactive: -6.57% |
| Cn1cc(Cl)c(C(=O)N/N=C/c2ccc3c4c(cccc24)CC3)n1 | inactive: -0.818% |
| COc1ccc(N2CCN(C(=O)c3ccccc3N(C)S(=O)(=O)c3ccccc3)CC2)cc1 | inactive: 2.5% |
| CCCCCCOc1ccc(NC(=O)CC2C(=O)N(CC)C(=S)N2Cc2ccco2)cc1 (configuration not stated) | inactive: 0.236% |
| Cc1cc(=O)[nH]c(SCC(=O)Nc2ccc(Br)cc2)c1C#N | inactive: 0.873% |
| COc1ccc(NS(=O)(=O)c2cc(NC(=O)/C=C/c3cc(OC)ccc3OC)ccc2N2CCCCC2)cc1 | inactive: 2.29% |
| O=C(Nc1ccc2nc3n(c(=O)c2c1)CCCCC3)C(=O)N1CCN(c2ccccc2F)CC1 | inactive: -1.1% |

| SMILES | activity change, negative = inhibition |
| --- | --- |
| Oc1c(Cl)cc(Cl)c(Cl)c1Cc1c(O)c(Cl)cc(Cl)c1Cl | inactive: -1.93% |
| CCN(c1ccccc1)S(=O)(=O)c1ccc(C(=O)N(CCCN(C)C)c2nc3cc4c(cc3s2)OCO4)cc1 | inactive: -2.95% |
| CC(C)C(c1nnnn1C(C)(C)C)N1CCN(c2cccc(Cl)c2)CC1 (configuration not stated) | inactive: -2.86% |
| C/C(=N/NS(=O)(=O)c1ccc(Br)cc1)c1ccc(NC(=O)c2ccc(C)o2)cc1 | inactive: 2.24% |
| Cc1ccc(SCC(=O)NCc2ccccc2C)cc1 | inactive: -0.429% |
| N#C/C(=C(/O)COC(=O)c1ccc(C#N)cc1)c1nc2ccccc2s1 | inactive: 1.45% |
| CCC(C)(C)C1CCC(NC(=O)N2CCN(c3ccccc3O)CC2)CC1 (configuration not stated) | inactive: -0.692% |
| COC(=O)c1cc(-c2c[nH]c3ccccc23)n[nH]1 | inactive: 0.527% |
| Cc1c(C(=O)OC/C(O)=C(\C#N)c2nc3ccccc3[nH]2)oc2ccc(Br)cc12 | inactive: -2.01% |
| O=C(CSc1ncnc2ccccc12)c1ccc2c(c1)OCCO2 | inactive: -2.55% |
| O=C(NC(=S)Nc1ccccc1)c1cc(-c2ccccc2)nc2ccccc12 | inactive: -3.13% |
| CCOc1cc(/C=C(\C#N)c2nc(-c3cccs3)c(NC(C)=O)s2)ccc1O | inactive: -7.62% |
| Cc1ccc(S(=O)(=O)/N=C2\C=C(Nc3cccc(C(=O)O)c3)C(=O)c3ccccc32)c(C)c1 | inactive: 2.48% |
| COc1ccc(C(c2nnnn2Cc2cccs2)N2CCN(c3ccccc3)CC2)cc1OC (configuration not stated) | inactive: 0.958% |
| CC(=O)c1ccc(NC(=O)C(C)N(C)CC(=O)Nc2ccc(N3CCOCC3)cc2)cc1 (configuration not stated) | inactive: 2.74% |
| CCOc1cc(C(=S)N2CCOCC2)ccc1OC(=O)c1ccccc1 | inactive: -1.14% |
| O=C(Nc1nc(-c2cccs2)cs1)c1ccc(S(=O)(=O)N2CCCCC2)cc1 | inactive: -4.9% |
| CC(Sc1nn(-c2ccc(F)cc2)c(=S)s1)C(=O)c1c(N)n(C)c(=O)n(C)c1=O (configuration not stated) | inactive: -2.58% |
| Cc1cc(C=O)c(C)n1-c1ccc(NC2CCCC2)c([N+](=O)[O-])c1 | inactive: 0.893% |
| COc1ccc(S(=O)(=O)Nc2ccc(C)cc2)cc1N(C)S(=O)(=O)c1ccc(Cl)cc1 | inactive: -3.51% |
| COc1cc2c(cc1OC)CN(C(=S)NC(=O)c1ccccc1)CC2 | inactive: 2.87% |

| SMILES | activity change, negative = inhibition |
| --- | --- |
| O=C(Nc1ccncc1)C1CCN(S(=O)(=O)c2cccc(C(F)(F)F)c2)CC1 | inactive: -0.603% |
| CC(C)c1ccc(/C=C/C(=O)NCCC2=CCCCC2)cc1 | inactive: 1.16% |
| COc1ccc(-c2nnc(NC(=O)c3ccc4c(c3)OCCO4)o2)cc1 | inactive: 0.767% |
| Cc1ccc(NC(=O)Cn2nnc(C(=O)NCCc3ccccc3)c2N)c(C)c1 | inactive: 2.31% |
| COc1ccc(C(=O)/C=C/Nc2ccc(S(=O)(=O)Nc3cccc(C(C)=O)c3)cc2)cc1 | inactive: -8.54% |
| Cc1ccc(C(=O)COC(=O)CCN2C(=O)C3C4CCC(C4)C3C2=O)cc1[N+](=O)[O-] (configuration not stated) | inactive: 0.424% |
| COc1cccc(-c2nc(CS(=O)(=O)CC(=O)N3CCCCC3)c(C)o2)c1 | inactive: -1.03% |
| O=C(c1cc(COc2cccc3cnccc23)on1)N1CCCC(CCCO)C1 (configuration not stated) | inactive: -6.85% |
| CC1(C)CC(=O)c2c(nc3ccccc3c2N)C1 | inactive: -1.77% |
| O=S(=O)(Nc1ccc2cn[nH]c2c1)c1cc(Br)ccc1Br | inactive: -0.271% |
| CCc1cc2c(NCc3ccccc3)nc(C)nc2s1 | inactive: -3.56% |
| COC(=O)c1nc2n(n1)C(c1cccc(Cl)c1)C1=C(CCCC1=O)N2 (configuration not stated) | inactive: 2.58% |
| CCCCCCSc1ccc(-c2nc3ccc(Cl)cn3c2NCCCC)cc1OC | inactive: -1.07% |
| Cc1ccc(N2C(=O)C3C4C=CC(CC4)C3C2=O)cc1Cl (configuration not stated) | inactive: 0.13% |
| Cc1nn(-c2ccc(N3CCOCC3)nn2)c(C)c1CCC(=O)NCc1ccccc1F | inactive: 2.89% |
| CC1CCCC(N2CCN(S(=O)(=O)c3ccccc3)CC2)C1 (configuration not stated) | inactive: 1.17% |
| COc1cccc(CNC(=O)CN2C(=O)CSc3ccc(S(=O)(=O)N4CCOCC4)cc32)c1 | inactive: 1.46% |
| O=c1[nH]c(=S)[nH]c2c1CN(Cc1ccc(F)cc1)CC2 | inactive: -0.904% |
| CCN(c1ccccc1)S(=O)(=O)c1ccc(NCC2COc3ccccc3O2)nc1 (configuration not stated) | inactive: -1.55% |
| CC(C)COc1cccc(-c2cc(C(=O)Nc3ccon3)c3ccccc3n2)c1 | inactive: -0.952% |
